Measurements as given in PubChem BioAssay AID493208 (National Center for Advancing Translational Sciences (NCATS), 2011).
Hit rate of the full screen: of about 44,000 compounds, about 340 (0.77%) were called active. Inconclusive results (about 5%) are left out. Calls come from the whole dose curve; as a rule, active = well fitted inhibition curve with a large enough effect; inconclusive = small, poorly fitted or top-dose-only effect; inactive = flat fitted curve, though single readings scatter. The list shows a part of the results.

Test: Acumen qHTS Assay for Inhibitors of the mTORC1 Signaling Pathway in MEF (Tsc2-/-, p53-/-) Cells: Sytravon;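 note: plate controls were DMSO for no effect and rapamycin for full effect; nearly all actives have a fitted effect of over 50% in size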
Settings: phospho-rpS6 immunofluorescence/PI, 24 h; series mostly up to 38.3 µM; activity change, negative = inhibition: at the top concentration
Procedure, shortened: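 Compounds act on Tsc2-/-, p53-/- fibroblasts carrying an empty vector for 24 h before fixation and dual staining for phospho-S6 and DNA (propidium iodide). Values are percentages of cells above a rapamycin-defined pS6/PI threshold.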

| SMILES | activity change, negative = inhibition |
| --- | --- |
| COc1ccc(NC(=O)CNC(=O)Cn2c(C)cc3ccccc3c2=O)c(OC)c1 | inactive: 5.08% |
| O=C(c1ccccc1)N1CCN(CCc2ccccn2)CC1 | inactive: -0.875% |
| CCOc1ccc(-n2cc(-c3ccccc3)c3c(Nc4cccc(F)c4)ncnc32)cc1 | inactive: 9.14% |
| COc1cccc(C(=O)Nc2c(C(=O)Nc3ccc(F)cc3)oc3ccccc23)c1OC | inactive: -0.37% |
| CCN(Cc1ccccc1)S(=O)(=O)c1cc(Br)cc2c1N(C(=O)C1CC1)CC2 | inactive: 1.25% |
| Cc1ccc(NC(=O)c2cnc(N3CCCC3)nc2C)cc1F | inactive: 0% |
| CCOc1ccc(C(=O)Nc2nnc(SCc3cc(=O)n4ccccc4n3)s2)cc1 | inactive: 5.05% |
| CC(CNC(=O)CCn1c(=O)c2cccn2c2ccc(F)cc21)c1ccccc1 (stereo unspecified) | inactive: -4.63% |
| CCOC(=O)c1ccccc1NC(=O)CSc1c(C)cnc2c1c(=O)n(C)c(=O)n2C | inactive: -5.64% |
| Cc1nc2c(c(C)c1CCC(=O)N1CCN(c3ccccc3)CC1)c(=O)n(C)c(=O)n2C | inactive: 0.861% |
| COc1ccc(C2C=C(c3ccccc3)Nc3nc(NS(=O)(=O)c4ccccc4)nn32)cc1 (stereo unspecified) | inactive: 1.05% |
| O=C(Nc1cccc(Cl)c1Cl)c1cc(S(=O)(=O)N2CCCCC2)ccc1F | inactive: 8.17% |
| COc1ccc(CCNC(=O)C2CC(=O)N(CCc3ccccc3)C2)cc1OC (stereo unspecified) | inactive: -20.8% |
| CCCCN1CC(c2nc3ccccc3n2CCCCOc2ccccc2C)CC1=O (stereo unspecified) | inactive: 2.64% |
| COc1ccc(OC)c(S(=O)(=O)NCCc2sc(-c3cccnc3)nc2C)c1 | inactive: -0.909% |
| CC(=O)OC1=CN(Cc2ccccc2)S(=O)(=O)c2ccccc21 | inactive: -1.17% |
| CCCN(Cc1cccs1)C(=O)Nc1cc(C)ccc1OC | inactive: 0.292% |
| O=C(c1ccc2c(c1)N(Cc1ccc(Cl)cc1)C(=O)c1ccccc1S2(=O)=O)N1CCCCCC1 | inactive: 0.24% |
| CCc1nn(CC(=O)Nc2ccc(C)c(F)c2)c(=O)c2cc3cc(C)ccc3n12 | inactive: -0.468% |
| COc1ccc(OC)c(CNC(=O)C2CCN(S(=O)(=O)N3CCCCC3)CC2)c1 | inactive: 6.67% |
| Cc1ccc(-c2onc(C)c2C)cc1S(=O)(=O)NCc1cccs1 | inactive: -6.9% |

| SMILES | activity change, negative = inhibition |
| --- | --- |
| COc1ccccc1N1CCN(c2nc3ccc(C(=O)c4ccccc4)cc3n3c(C)nnc23)CC1 | inactive: 1.13% |
| Cc1ccc(-c2cn3c(n2)sc2cc(C(=O)NCCC4=CCCCC4)ccc23)c(C)c1 | inactive: -13.2% |
| CCOc1ccc(S(=O)(=O)NCC(c2ccc(N(C)C)cc2)N2CCCC2)cc1 (stereo unspecified) | inactive: 0% |
| O=C(COc1ccc(F)cc1)Nc1ccc2nc(SCC(=O)N3CCCC3)sc2c1 | inactive: 0% |
| COc1ccccc1N1CCN(C2C(=O)c3ccccc3N2C(C)=O)CC1 (stereo unspecified) | inactive: 3.9% |
| CCOc1ccc(-c2nnc(SCC(=O)Nc3ccccc3C(F)(F)F)o2)cc1 | inactive: 1.96% |
| Cc1ccc(N2C(=O)C(CC(=O)Nc3ccc(F)cc3)N(CCC3=CCCCC3)C2=O)cc1 (stereo unspecified) | inactive: -6.91% |
| COCCCNC(=O)c1cn(CC(C)C)c(=O)c2c1c1ccccc1n2C | inactive: 3.15% |
| COc1cc(OC)c(NS(=O)(=O)c2cc3c(cc2C)NC(=O)CO3)cc1Cl | inactive: 5.45% |
| CC(=O)c1ccc(N2CCN(C(=O)C3CCN(S(=O)(=O)c4ccc(Br)s4)CC3)CC2)cc1 | inactive: 2.18% |
| COCCn1c(CNC(=O)c2cccc(N(C)C)c2)nc2cccnc21 | inactive: -10% |
| CCN(Cc1ccccc1)C(=O)CCS(=O)(=O)c1cc2c(cc1Cl)NC(=O)CO2 | inactive: 4.16% |
| Cc1nc2scc(C)n2c(=O)c1S(=O)(=O)Nc1cccc(O)c1 | inactive: -17.3% |
| CCOC(=O)c1ccc(CN(Cc2ccc(F)cc2)S(=O)(=O)c2ccc(F)cc2)cc1 | inactive: 7.14% |
| CCCOc1ccc(C2c3c(oc4ccccc4c3=O)C(=O)N2c2ccc(C)cn2)cc1OCC (stereo unspecified) | inactive: -0.87% |
| CCOC(=O)c1c(C)[nH]c(C)c1S(=O)(=O)N1CCC(C(=O)N2CCN(c3cccc(C)c3)C(C)C2)CC1 (stereo unspecified) | inactive: -3.16% |
| Cc1ccc(C)c(NC(=O)Nc2nnc(N(CC(C)C)CC(C)C)s2)c1 | inactive: -0.78% |
| Cc1ccc(CCNC(=O)c2ccc3c(=O)n(-c4ccc(C)cc4)c(=O)[nH]c3c2)cc1 | inactive: -5.03% |
| Cc1ccccc1S(=O)Cc1ccc(C(=O)NC2CCCCCC2)o1 (stereo unspecified) | inactive: 1.6% |
| CCOc1cccc2sc(NC(=O)c3ccc(S(=O)(=O)N4CCCc5ccccc54)cc3)nc12 | inactive: -6.85% |
| COc1ccc2oc(=O)c(-c3nc(-c4cc(OC)c(OC)c(OC)c4)no3)cc2c1 | inactive: -3.75% |

| SMILES | activity change, negative = inhibition |
| --- | --- |
| O=C(CNS(=O)(=O)c1cccs1)N1CCN(c2ccccc2Cl)CC1 | inactive: 3.55% |
| O=C(Cn1cc(SCc2cccc(F)c2)c2ccccc21)N1CCCC1 | inactive: -19.5% |
| Cc1ccc(C(=O)Nc2ccc3nc(SCC(=O)N4CCc5ccccc54)sc3c2)cc1 | inactive: -6.29% |
| Cc1ccc2c(CNCc3cccc(Cl)c3)c(C(=O)O)n(Cc3ccc(F)cc3Cl)c2c1 | inactive: 3.94% |
| Cc1cc2oc(C(=O)Nc3sc4c(c3C(=O)NCc3ccco3)CCC4)cc(=O)c2cc1C | inactive: 1.96% |
| CSc1ccc(CNC(=O)CCn2ccc3cc(S(=O)(=O)N4CCC(C)CC4)ccc32)cc1 | inactive: -16.4% |
| COc1ccc(N2CCN(C(=O)c3cnc(N4CCCC4)nc3C)CC2)cc1 | inactive: 19.6% |
| COc1ccccc1CNS(=O)(=O)c1ccc2[nH]c3c(c2c1)CCCCC3 | inactive: -7.79% |
| CCC(Sc1nc2ccccc2c2nc(CCc3c(C)n[nH]c3C)nn12)C(=O)Nc1ccc(F)cc1 (stereo unspecified) | inactive: -2.59% |
| CC1=C(c2ccc(C)cc2)S(=O)(=O)N(Cc2ccc(C(=O)NCc3cccc(C)c3)cc2)C1=O | inactive: -3.74% |
| COc1cccc(-n2nnc3c(sc4nc(C)cc(C)c43)c2=O)c1 | inactive: -0.787% |
| Cc1c(Cl)cccc1NC(=O)N1CCC(CN2CCCC2)CC1 | inactive: -6.23% |
| COc1ccc(CCNC(=O)CN(c2ccccc2OC)S(=O)(=O)c2ccc(C)cc2)cc1 | inactive: -16.2% |
| COC(=O)c1c(NC(=O)c2cc(=O)c3ccc(C)c(C)c3o2)sc2c1CCCC2 | inactive: 6.55% |
| O=C(Nc1sc2c(c1C(=O)Nc1ccccc1Cl)CCCC2)c1ccccc1F | inactive: -23.2% |
| Cc1ccc(NC(=O)CSc2nc(C)c(Cc3ccccc3)c(=O)[nH]2)cc1 | inactive: 1.37% |
| COC(=O)c1ccc(NC(=O)CSc2nc3ccc(OC)cc3[nH]2)cc1 | inactive: 2.79% |
| O=C(NCc1ccccc1Br)C1CCCN(C(=O)N2CCOc3ccccc32)C1 (stereo unspecified) | inactive: 3.76% |
| COCCCNC(=O)Cn1c(=O)n(Cc2ccc(C(=O)NCc3ccc(C)cc3)cc2)c(=O)c2ccccc21 | inactive: -2.04% |
